Counter-ions that a name gives are not always drawn. The list shows a part of the results. Repeats are few or missing, and single values can be far off.
test system: MDA-468; experiment: cell viability relative to vehicle (% of vehicle); basal-like triple-negative breast cancer lines; higher = less cytotoxic; conditions: 10 µM; 72 h
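Also: stably firefly luciferase-GFP labeled cells in 96-well plates, viability read as luciferase photon flux after d-luciferin addition, treated wells normalized to vehicle wells, single-dose high-throughput screen.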

**Q.** With `O=C([O-])P(=O)([O-])[O-].[Na+].[Na+].[Na+]` [Foscarnet Sodium] as the molecule, how does the cell viability read?
**A.** 107

**Q.** Which cell viability does the source give for `CNC(=O)c1ccccc1Sc1ccc2c(C=Cc3ccccn3)n[nH]c2c1` here?
**A.** 115

**Q.** `Nc1ccc(O)c(C(=O)O)c1` [Mesalamine] was tested. Which cell viability did it give?
**A.** 103

**Q.** Which cell viability does the source give for `Cc1cccc(-c2nn3c(c2-c2ccnc4ccc(C(N)=O)cc24)CCC3)n1` here?
**A.** 112

**Q.** Which cell viability does the source give for `C[C@H]1COc2c(N3CCN(C)CC3)c(F)cc3c(=O)c(C(=O)O)cn1c23` [Levofloxacin] here?
**A.** 88.4

**Q.** With `COc1cnc(NS(=O)(=O)c2ccc(N)cc2)nc1` [Sulfameter] as the molecule, how does the cell viability read?
**A.** 102

**Q.** With `Cl.NCCCC(N)(C(=O)O)C(F)F.O` (racemic) [DL-α-Difluoromethylornithine (hydrochloride hydrate)] as the molecule, how does the cell viability read?
**A.** 92.5

**Q.** With `CCc1cc(C(C)=NOCc2ccc(C3CCCCC3)c(C(F)(F)F)c2)ccc1CN1CC(C(=O)O)C1` [BAF312 (Siponimod)] as the molecule, how does the cell viability read?
**A.** 89.1

**Q.** `CN1CCN(c2ccc3c(c2)NC(=C2C(=O)N=c4cccc(F)c4=C2N)N3)CC1` [Dovitinib (TKI-258, CHIR-258)] was tested. Which cell viability did it give?
**A.** 40.5

**Q.** Which cell viability does the source give for `CNC(C)C1CCC(N)C(OC2C(N)CC(N)C(OC3OCC(C)(O)C(NC)C3O)C2O)O1.O=S(=O)(O)O` (centres undefined) [Gentamycin Sulfate] here?
**A.** 87.5

**Q.** Which cell viability does the source give for `C=C1C(CO)C(O)CC1n1cnc2c(=O)nc(N)[nH]c21.O` (centres undefined) [Entecavir Hydrate] here?
**A.** 80.7

**Q.** With `CN1CCN(c2ccc(C(=O)/N=c3\[nH][nH]c4ccc(Cc5cc(F)cc(F)c5)cc34)c(NC3CCOCC3)c2)CC1` [Entrectinib] as the molecule, how does the cell viability read?
**A.** 33.3

**Q.** `Cc1cccc(C)c1OCC(C)N.Cl` (centres undefined) [Mexiletine HCl] was tested. Which cell viability did it give?
**A.** 120

**Q.** For `CCc1cccc2c3c([nH]c12)C(CC)(CC(=O)O)OCC3` (centres undefined) [Etodolac], which cell viability is on record?
**A.** 101

**Q.** For `Cc1cn(-c2cc(/N=C(\O)c3ccc(C)c(Nc4nccc(-c5cnccn5)n4)c3)cc(C(F)(F)F)c2)cn1` [Radotinib(IY-5511)], which cell viability is on record?
**A.** 102

**Q.** For `CC(=O)SCC(Cc1ccccc1)C(=O)NCC(=O)OCc1ccccc1` (centres undefined) [Racecadotril], which cell viability is on record?
**A.** 93.1

**Q.** `CC(C)=CCCC(C)=CCCC(C)=CCSc1ccccc1C(=O)O` [Salirasib] was tested. Which cell viability did it give?
**A.** 78.3

**Q.** For `COC(=O)C=CC(=O)OC` [Dimethyl Fumarate], which cell viability is on record?
**A.** 119

**Q.** Which cell viability does the source give for `CCS(=O)(=O)CCn1c([N+](=O)[O-])cnc1C` [Tinidazole] here?
**A.** 104

**Q.** `Cc1cc(-n2c(=O)[nH]c(=O)n(C)c2=O)ccc1Oc1ccc(SC(F)(F)F)cc1` [Toltrazuril] was tested. Which cell viability did it give?
**A.** 98.7

**Q.** For `CCCCCCCCCCCC1=C(O)C(=O)C=C(O)C1=O` [Embelin], which cell viability is on record?
**A.** 113

**Q.** Which cell viability does the source give for `CC(C)C(=O)Nc1ccc([N+](=O)[O-])c(C(F)(F)F)c1` [Flutamide] here?
**A.** 107

**Q.** Which cell viability does the source give for `CC(C)n1c(C=CC(O)CC(O)CC(=O)[O-])c(-c2ccc(F)cc2)c2ccccc21.[Na+]` (centres undefined) [Fluvastatin Sodium] here?
**A.** 43.6

**Q.** Which cell viability does the source give for `O=C(C1CCCCC1)N1CC(=O)N2CCc3ccccc3C2C1` (centres undefined) [Praziquantel] here?
**A.** 113

**Q.** Which cell viability does the source give for `Cn1cnc2c(F)c(Nc3ccc(Br)cc3F)c(C(=O)NOCCO)cc21` here?
**A.** 98.2

**Q.** How did the cell viability turn out when `CC1OC(OCC2OC(Oc3c(-c4ccc(O)c(O)c4)oc4cc(O)cc(O)c4c3=O)C(O)C(O)C2O)C(O)C(O)C1O` (centres undefined) [Rutin] was run?
**A.** 108

**Q.** Which cell viability does the source give for `Cl.O=C1OC(CN2CCOCC2)CN1N=Cc1ccc([N+](=O)[O-])o1` (centres undefined) [Furaltadone HCl] here?
**A.** 97.3

**Q.** `COc1cc2nccc(Oc3ccc(NC(=O)NC4CC4)c(Cl)c3)c2cc1C(N)=O` [Lenvatinib (E7080)] was tested. Which cell viability did it give?
**A.** 74

**Q.** With `O=C(O)c1cccnc1` [Nicotinic Acid] as the molecule, how does the cell viability read?
**A.** 95.2

**Q.** Which cell viability does the source give for `Nc1ccn(C2CCC(CO)O2)c(=O)n1` (centres undefined) [Zalcitabine] here?
**A.** 103

**Q.** With `CCCNC(=O)NS(=O)(=O)c1ccc(Cl)cc1` [Chlorpropamide] as the molecule, how does the cell viability read?
**A.** 101

**Q.** Which cell viability does the source give for `Nc1ccn(CC(CO)OCP(=O)(O)O)c(=O)n1.O.O` (centres undefined) [Cidofovir dihydrate] here?
**A.** 109

**Q.** For `CCC1OC(=O)C(C)C(OC2CC(C)(OC)C(O)C(C)O2)C(C)C(OC2OC(C)CC(N(C)C)C2O)C(C)(O)CC(C)C(=O)C(C)C(O)C1(C)O` (centres undefined) [Erythromycin], which cell viability is on record?
**A.** 68.2

**Q.** `Nc1nc(N)nc(-c2cc(Cl)ccc2Cl)n1` [Irsogladine] was tested. Which cell viability did it give?
**A.** 121

**Q.** For `Cc1c(O)c(=O)ccn1C` [Deferiprone], which cell viability is on record?
**A.** 113

**Q.** For `CS(=O)(=O)O.Cc1ccc(N(CC2=NCCN2)c2cccc(O)c2)cc1` [Phentolamine Mesylate], which cell viability is on record?
**A.** 108

**Q.** `CC(=O)C1CCC2C3CCC4=CC(=O)CCC4(C)C3CCC12C` (centres undefined) [Progesterone] was tested. Which cell viability did it give?
**A.** 121

**Q.** `CCc1c2c(nc3ccc(OC(=O)N4CCC(N5CCCCC5)CC4)cc13)-c1cc3c(c(=O)n1C2)COC(=O)[C@]3(O)CC` [Irinotecan HCl Trihydrate] was tested. Which cell viability did it give?
**A.** 82.5

**Q.** `CC(C)COc1ccc(CNC(=O)N(Cc2ccc(F)cc2)C2CCN(C)CC2)cc1` [Pimavanserin] was tested. Which cell viability did it give?
**A.** 58.6

— the supplement of paper PMC8512760
